Experimental findings from publication PMC4336329 (PLoS ONE, 2015) are described below.

Among all 310,000 compounds or so, about 14,000 (4.5%) showed an effect of 50% or more. Effects have a minus sign here. This is one part of the list.
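Also: peak tail current of the secondary pulse compared with the same well before compound.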

This assay deals with human ether-à-go-go-related gene (hERG) potassium channel (human, UniProt Q12809). Briefly: primary screen, population patch clamp on CHO cells stably expressing hERG.
human ether-à-go-go-related gene (hERG) potassium channel, sequence (Q12809 whole entry, looked up): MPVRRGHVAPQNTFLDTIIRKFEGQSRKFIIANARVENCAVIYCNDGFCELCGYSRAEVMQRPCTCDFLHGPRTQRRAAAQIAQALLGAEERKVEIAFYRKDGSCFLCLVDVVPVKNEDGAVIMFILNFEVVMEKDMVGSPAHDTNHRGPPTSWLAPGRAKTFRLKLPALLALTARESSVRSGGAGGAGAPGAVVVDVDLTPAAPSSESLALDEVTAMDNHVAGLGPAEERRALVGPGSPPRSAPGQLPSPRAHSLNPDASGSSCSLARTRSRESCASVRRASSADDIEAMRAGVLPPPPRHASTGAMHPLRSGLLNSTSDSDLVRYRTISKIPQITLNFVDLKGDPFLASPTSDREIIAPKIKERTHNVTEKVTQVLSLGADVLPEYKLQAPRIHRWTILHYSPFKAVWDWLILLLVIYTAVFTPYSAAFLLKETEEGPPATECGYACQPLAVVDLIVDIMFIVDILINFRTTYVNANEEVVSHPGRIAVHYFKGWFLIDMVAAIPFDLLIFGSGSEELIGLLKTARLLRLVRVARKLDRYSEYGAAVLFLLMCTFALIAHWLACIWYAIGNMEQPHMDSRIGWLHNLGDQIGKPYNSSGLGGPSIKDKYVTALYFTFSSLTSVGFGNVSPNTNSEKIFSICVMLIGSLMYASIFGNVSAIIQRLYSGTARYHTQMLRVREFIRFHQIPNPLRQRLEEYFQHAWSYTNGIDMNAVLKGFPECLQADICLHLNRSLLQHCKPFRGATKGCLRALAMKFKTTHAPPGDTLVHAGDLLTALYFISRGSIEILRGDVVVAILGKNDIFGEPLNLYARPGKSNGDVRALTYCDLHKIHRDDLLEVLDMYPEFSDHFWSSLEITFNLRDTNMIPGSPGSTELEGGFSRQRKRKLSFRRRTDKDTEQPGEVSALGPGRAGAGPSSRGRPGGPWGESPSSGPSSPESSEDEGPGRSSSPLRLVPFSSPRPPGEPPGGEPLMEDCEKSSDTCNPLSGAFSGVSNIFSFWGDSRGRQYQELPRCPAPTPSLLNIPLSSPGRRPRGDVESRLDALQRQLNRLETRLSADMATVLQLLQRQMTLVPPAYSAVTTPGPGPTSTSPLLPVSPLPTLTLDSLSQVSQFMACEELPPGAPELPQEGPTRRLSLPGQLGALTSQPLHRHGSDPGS
Consider `Cc1ccc(OCc2ccc(C(=O)N3CCCC3)o2)c([N+](=O)[O-])c1`, for which the “hERG current change (%, negative = inhibition) at 10uM” value is listed as -46.6%.

For the molecule `O=C(CN1C(=O)CCC1=O)Nc1nc(-c2cccs2)cs1`, the “hERG current change (%, negative = inhibition) at 10uM” value was -8.31%. `CN1CCN(CCCN2c3ccccc3Sc3ccc(S(=O)(=O)N(C)C)cc32)CC1.CS(=O)(=O)O`: the “hERG current change (%, negative = inhibition) at 10uM” value is listed as -57.4%. As for `Cc1noc(NS(=O)(=O)c2ccc(N3Cc4ccccc4C3=O)cc2)c1C`, the “hERG current change (%, negative = inhibition) at 10uM” value turned out to be 8.82%. To `CCOc1ncccc1C(=O)OCC(=O)NC(=O)c1ccccc1` belongs 0.726%. The same measure for `CC(C)CC(NC(=O)OC(C)(C)C)c1cn([C@@H](CCCCNC(=O)OC(C)(C)C)C(=O)N2CCN(C(=O)OC(C)(C)C)CC2)nn1` (stereo partly drawn): -5.01%. The same measure for `CC(c1ccc2c(c1)OCO2)n1c(=S)[nH]c2ccccc2c1=O` (stereo not drawn): 1.32%. With `O=C(N1CCOCC1)C(F)(F)C(F)(F)C(F)(F)C(F)(F)C(=O)N1CCOCC1`, the “hERG current change (%, negative = inhibition) at 10uM” value turned out to be 5.81%. As to `COc1ccc(C(=O)Nc2ccccc2C(=O)NCc2ccco2)cc1`, the “hERG current change (%, negative = inhibition) at 10uM” value was -24.9%. The same measure for `COc1ccc(C)cc1NC(=O)c1ccc(S(=O)(=O)N2CCCCC2)cc1`: 11.6%. For `Cc1cccc(-n2c(-c3ccccc3)nc3ccccc3c2=O)n1`, the “hERG current change (%, negative = inhibition) at 10uM” value is -2.86%. To `CCc1ccc(C(=O)Nc2cc(C)on2)o1` belongs 15.5%. The same measure for `CC(C)CCn1c(=O)c2ccccc2n2c(CN3CCCC3)nnc12`: -2.3%. For the molecule `COc1ccc(N2CCN(C(=O)/C(C#N)=C/c3ccccc3)CC2)cc1`, the “hERG current change (%, negative = inhibition) at 10uM” value was -17.3%. To `COc1ccc(-c2nnc3c4ccccc4c(C)nn23)cc1` belongs -16.4%; to `O=C(NC1CC2CCCC(C1)N2S(=O)(=O)c1ccccc1)c1ccccc1` (stereo not drawn), -44%. The same measure for `COc1ccc(-n2c(C)c(C)c3c(NCCO)ncnc32)cc1`: 8.73%; for `O=C(NC1CCCCC1)C(c1ccccc1)N1CCCC1` (stereo not drawn): 7.48%.

Consider `CN(CCOc1ccc(Cl)cc1)CC(=O)Nc1ccc(OC(F)(F)F)cc1`, for which the “hERG current change (%, negative = inhibition) at 10uM” value came out at 8.27%. The same measure for `O=C(OC1CCOC1=O)c1cncc(Br)c1` (stereo not drawn): -15.7%; for `COc1ccc(C(=O)COC(=O)/C=C/c2ccccc2)cc1`: 6.99%; for `O=C(COC(=O)c1cc(S(=O)(=O)NCc2ccccc2)ccc1O)c1cc2ccccc2o1`: 11.9%. To `CC(C)c1ccc(-n2c(O)c(C=NCCN3CCNCC3)c(=O)[nH]c2=S)cc1` belongs 24.1%; to `O=C(c1ccc2c(c1)OCO2)N1CCN=C1SCc1ccccc1`, -29.9%. The same measure for `O=C(COC(=O)C1CCN(S(=O)(=O)c2cccs2)CC1)NCc1ccccc1`: -23.6%; for `NC(=O)c1nc(-c2ccco2)nc2c1[nH]c(=O)n2-c1ccc(Cl)c(Cl)c1`: -9.13%.

With `Cc1cc(C(=O)N/N=C/c2ccc[nH]2)n[nH]1`, the “hERG current change (%, negative = inhibition) at 10uM” value turned out to be 21.2%. To `COc1ccccc1N1CCN(C(=O)Cn2nnc(-c3ccncc3)n2)CC1` belongs -11.9%. To `Cc1c(N=C2SC(CC(=O)Nc3ccccc3)C(=O)N2CCN2CCOCC2)c(=O)n(-c2ccccc2)n1C` (stereo not drawn) belongs 6.42%. The same measure for `COC(=O)C(CC(C)C)Oc1ccc2c(C)cc(=O)oc2c1` (stereo not drawn): -7.75%; for `COc1ccc(NC2CCCN(C(=O)c3ccc4nccnc4c3)C2)cc1OC` (stereo not drawn): 16.4%.

Regarding `Cc1ccc(C2(c3noc(CN(C)CC4CCCCO4)n3)CCCC2)cc1` (stereo not drawn), the “hERG current change (%, negative = inhibition) at 10uM” value is reported as 5.87%. To `Clc1ncc(Cn2cccn2)s1` belongs 10.5%; to `COc1ccc(S(=O)(=O)N2CC3CCCN3c3cc(C(F)(F)F)ccc32)cc1` (stereo not drawn), 16.5%. The same measure for `O=C(O)C(=O)O.O=[N+]([O-])c1ccccc1CNC1CCCCCC1`: 14%.

Regarding `O=C(NCCC(=O)N1CCCCCCC1)c1ccc(Br)cc1`, the “hERG current change (%, negative = inhibition) at 10uM” value is listed as -12.9%.

With `COc1ccc(S(=O)(=O)NNC(=O)c2cccs2)cc1`, the “hERG current change (%, negative = inhibition) at 10uM” value was found to be 1.37%. To `Cl.O=[N+]([O-])c1ccccc1/C=N/NC1=NCCCCC1` belongs -39.3%; to `O=C(NCC(=O)N(c1ccccc1)C(C(=O)NC1CCCCC1)c1cccnc1)c1cccs1` (stereo not drawn), 7.14%.

Take `CC(C)Cn1cc(C(=O)NCCCN2CCC(C)CC2)c2c3ccccc3n(C)c2c1=O`: the “hERG current change (%, negative = inhibition) at 10uM” value is -43.1%. `CCc1cccc(C)c1NC(=O)CSc1nnc(C)o1`: the “hERG current change (%, negative = inhibition) at 10uM” value is given as -25.4%. Take `Cc1ccc(S(=O)(=O)Nc2ccc3c(c2)C(=O)NC3=O)cc1[N+](=O)[O-]`: the “hERG current change (%, negative = inhibition) at 10uM” value is listed as 19.6%. Take `Cc1cnc(=O)[nH]c1SCc1ccc([N+](=O)[O-])cc1`: the “hERG current change (%, negative = inhibition) at 10uM” value is -70.1%. To `CCS(=O)(=O)N1Cc2ccccc2CC1C(=O)Nc1cccc(OC)c1` (stereo not drawn) belongs 14.3%. The same measure for `O=C(CSc1nc2ccccc2o1)Nc1ccccc1N1CCOCC1`: -16.6%.
